Measurements published in article PMC3681933.
These are yes or no findings as the source states them, for the method shown. In cells and extracts the contact can be indirect. Where a sequence is shown, tags or fusion partners need not be part of it.

Target: T1, GST-Bem1 (S. cerevisiae), P29366
T1 chain: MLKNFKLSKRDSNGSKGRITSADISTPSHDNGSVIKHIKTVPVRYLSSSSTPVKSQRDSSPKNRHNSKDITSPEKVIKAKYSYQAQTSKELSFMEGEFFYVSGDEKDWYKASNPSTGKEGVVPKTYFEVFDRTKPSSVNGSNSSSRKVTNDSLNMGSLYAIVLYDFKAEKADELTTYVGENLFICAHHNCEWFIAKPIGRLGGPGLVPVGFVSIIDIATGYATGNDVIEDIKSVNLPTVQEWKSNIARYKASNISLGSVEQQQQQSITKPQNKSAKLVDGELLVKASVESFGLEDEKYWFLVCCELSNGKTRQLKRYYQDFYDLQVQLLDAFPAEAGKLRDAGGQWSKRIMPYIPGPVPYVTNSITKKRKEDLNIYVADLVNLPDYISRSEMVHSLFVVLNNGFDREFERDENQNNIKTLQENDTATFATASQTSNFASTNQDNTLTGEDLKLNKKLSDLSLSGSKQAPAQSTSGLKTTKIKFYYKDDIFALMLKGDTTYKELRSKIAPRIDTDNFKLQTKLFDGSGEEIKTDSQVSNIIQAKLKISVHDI
Test: pull-down; GST or GST fusions induced with 2% galactose for 4 h in yeast co-expressing 3HA-Msb1 (strains YEF473A wild type or YEF1395 msb1Δ, endogenous BOI1 and BOI2 present); glutathione-Sepharose beads from Triton X-100-solubilized cell lysates; anti-HA blot
Details: remark: other sources report otherwise

binding: no binding
B1: Msb1 tagged with three copies of HA at its N-terminus, P21339 1-1137 (protein)
chain: MNDMAKPLPTPPTAEIRKSRSNSPKKAQKTNLSPNKNQNNEKNVPRSNGRTKNEHNSMDDEEFEFFHQFSREKVKGVIHVITAELKEKGPDVEFLMIPFRPEQTNDKLLTLLNQLFPLGNGQPVNEKKQLRIVSKADVWTLFQCLKYIWCRLPNSEIIGWKSYLEFKFREEDKKFPRKSFLEIMPQCLASPNHASIVYDFFDLIISISSNSRVNKMSARKISKMCAIWAFSKQIPNSDIQDYDFESAAMKSFAPNNSIQDGLDQWIPASDAMFHLLLAFLRSFVPQDLESAKLPRTLKSLLFNNQYPPRKSTAYTSETILTIPLVTLKTDVFSRKPWQLLERCNDLLDFSDHDAFEAREDYALLKSLFRKKNTVEGISRKMSQESRRLMKAMSTKHSTFQPGWAPRECIENISHLKECIEVKRLDIDDYFIWTWLSSLSFEQTSEKKKIFGRSIILEFEFDGFKKWVVFQECDITLDYNKKGQLKKKTSAQSPTTEKELPPDDFELEDPPLSKSPTLSQTYKKFQAEVPQQSTVRRDSAPDNQGIYHTVISKNALTKNKHNVNLHSFEHKISKWNPLNNLRKKSGSNSSSSSFEEKSKDAPIREEYHTNKNHKSKKEERVLSQFSTLNPDEYQLPVIETGSSNFKIEIPELMYEHDDDDSDKLKNSQKRATDSAIEELNGMVEEMMINEPDDVKISITEAETFESLTKFDQYKPSNITDDDLQSSHSSAVHSLKLSTNTNDSCADSSKYTADRKLAEPRKISEESKVNDDSSSYYSPNINNLPASRMPSQPTYSNSDSKKAFTNESRLNVLQGAVSPSQQVTPKPYKNAPGDCVSPVQQKYYQNDRRNEMSPASAPVPPSAYSPARSPQFSTNSAGFKQNTINVPVGYNDPAHVLANQPHMTYRDQHNYPSHQQKQRPFQNNIVPPELKSRNQRADASPIPQHMVPVKQGVPNLPSNVPLYQQMERMNPNHQHPVNTYKVTQPPYHNNTTNAYGNSRAGNAHMLDGKWSNNPPQMVPKGVRPNQYPQQHVNRYSPQAQPVVPAEYYNGPPPMRAPPMMSHMVPAQEPIRYTAGANRRSFPQGMQQNAYSVPAQPMGAVNSEFYLPEAPQGNKLHGNINKRQERKKLYDNIRSGNFGI
